{
  "source": "PubChem BioAssay AID686978",
  "about": "(National Center for Advancing Translational Sciences (NCATS), 2013)",
  "note": "The whole screen tested about 420,000 compounds, of which about 64,000 (15%) were called active. The inconclusive results got no clear call from the source; some entries with a clear call stand among them for comparison. The call rests on the fitted dose curve; in most records, active means well fitted inhibition curve with a large enough effect; inconclusive means small, poorly fitted or top-dose-only effect; inactive means flat fitted curve, though single readings scatter. Potencies of inconclusive entries are left out as doubtful fits. Potency means the concentration at half of the fitted maximal effect; tags describe the fitted curve by direction and shape.",
  "data": [
    {"test": "qHTS for Inhibitors of human tyrosyl-DNA phosphodiesterase 1 (TDP1): qHTS in cells in absence of CPT; further: nearly all actives have a fitted effect of over 55% in size", "conditions": "DT40 Tdp1-/- hTDP1 cells, no CPT, ATP luminescence, 48 h; series mostly up to 46.2 µM", "procedure,_shortened": "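Camptothecin absent (DMSO only). Human TDP1-complemented DT40 knockout cells, 400 cells/well, 37 °C for minimum 48 hr; ATP measured via CellTiter-Glo, 30 min dark incubation, luminescence.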", "values": [
      {"smiles": "COc1ccc(C)cc1S(=O)(=O)N1CCN(Cc2ccccc2)CC1", "Potency": "inconclusive [inhibitor, single point]"},
      {"smiles": "CNC(=S)NC1CC2CCC(C1)N2Cc1ccccc1", "note": "(stereo not given)", "Potency": "inactive"},
      {"smiles": "COc1ccc(Cc2nnc(SCc3c(C)noc3C)n2C2CCCCC2)cc1OC", "Potency": "inconclusive [inhibitor, single point]"},
      {"smiles": "O=Cc1cn(CC(O)Cn2cc(C=O)c3ccccc32)c2ccccc12", "Potency": "inactive"},
      {"smiles": "Cc1cc(C)nc(Sc2ccc3nnc(C(F)(F)C(F)(F)C(F)(F)F)n3n2)n1", "Potency": "inactive"},
      {"smiles": "COC(=O)[C@]12CCCCC=C1N(Cc1ccco1)C(=O)[C@H](CC(=O)NCC1CCCCC1)C2", "Potency": "inconclusive [inhibitor, single point]"},
      {"smiles": "CC1CCN(C(=O)CSc2nnc(-c3ccccc3Cl)o2)CC1", "Potency": "inconclusive [inhibitor, single point]"},
      {"smiles": "Cc1cccc(C(=O)OCC(=O)NNC(=O)c2cccs2)c1O", "Potency": "inactive"},
      {"smiles": "O=C(CNC(=O)c1cc(Cl)cc([N+](=O)[O-])c1)OCC(=O)N1CCCCC1", "Potency": "inactive"},
      {"smiles": "CC(O)(c1cccc(F)c1)c1nc(-c2cccc(F)c2)cs1", "note": "(stereo not given)", "Potency": "inconclusive [inhibitor, single point]"},
      {"smiles": "Cc1cc(C)n(-c2nc3ccccc3nc2N2CCN(S(=O)(=O)c3ccc4ccccc4c3)CC2)n1", "Potency": "active: 14.1 µM"},
      {"smiles": "O=C1CCCC2=C1C(c1ccc(Cl)cc1)C1C(=O)c3ccccc3C1=N2", "note": "(stereo not given)", "Potency": "inconclusive [inhibitor, single point]"},
      {"smiles": "Cc1ccc(/C(O)=C2/C(=O)C(=O)N(c3ccccn3)C2c2cccc([N+](=O)[O-])c2)cc1", "note": "(stereo not given)", "Potency": "inactive"},
      {"smiles": "Cc1ccc(S(=O)(=O)NCCc2cn3c(C)csc3n2)cc1", "Potency": "inactive"},
      {"smiles": "COc1ccc(Cl)cc1NC(=S)N1CC(C)OC(C)C1", "note": "(stereo not given)", "Potency": "inactive"},
      {"smiles": "CCOC(=O)C1=C[C@@H](C(C)C)N(S(=O)(=O)c2ccc(C)cc2)[C@H]1c1ccccc1F", "Potency": "inconclusive [inhibitor, single point]"},
      {"smiles": "CCOC(=O)C1=C(C)N=C2SC(CC)C(=O)N2C1c1cccc(F)c1", "note": "(stereo not given)", "Potency": "inconclusive [inhibitor, single point]"},
      {"smiles": "CCC(C)C(NC(=O)c1ccccc1)C(=O)Nc1ccc(S(=O)(=O)Nc2cc(C)nc(C)n2)cc1", "note": "(stereo not given)", "Potency": "inactive"},
      {"smiles": "COC(=O)CCCCCN1C(=O)NC(c2ccc(-c3ccccc3)cc2)C(C(=O)OCc2ccccc2)=C1C", "note": "(stereo not given)", "Potency": "inconclusive [inhibitor, single point]"},
      {"smiles": "COc1ccc(C2/C=C\\CN(C(=O)NC34CC5CC(CC(C5)C3)C4)CC(=O)N2Cc2ccc(F)cc2)cc1", "note": "(stereo not given)", "Potency": "inconclusive [inhibitor, single point]"}
    ]}
  ]
}
